The record followed here is US8119567B2, “Method for control of cyanobacterial algae, mosses, liverworts, hornworts and other bryophytes” (FMC Corporation, priority 2004, dated 2012).

The experiment deals with Silver Moss (Bryum argenteum). Kind of experiment: Efficacy test on silver moss in bentgrass turf, scale 1-10 (Example 3). As to conditions: scale of 1-10 with 1 being the untreated control, rate 1.19 lbs per 1000 ft^2, average of four trials. It counts as in vivo. On the procedure:
Trials were conducted by spraying 24.4-73.2 mls per 1000 ft^2 of carfentrazone formulated as a 1.9 EW (Quicksilver T&O) onto bentgrass turf that was invaded by silver moss. Carfentrazone formulated as a 1.9 EW was also combined with X-77 Spreader (liquid at 0.25 wt % v/v basis) and sprayed at 24.4-36.6 mls per 1000 ft^2. The bentgrass turf was evaluated periodically after application. Control or efficacy was determined on a scale of 1-10 with 1 being the untreated control. Four trials were conducted.
The results, shown as an average of the four trials, are compared with results observed in the same trials with Terracyte at 8-16 lbs per 1000 ft^2 application, copper sulfate at 1.19 lbs per 1000 ft^2 and a control of no application.

Regarding `O=S(=O)([O-])[O-].[Cu+2]` [Copper Sulfate, copper sulfate], the “Efficacy/Control of Silver Moss in Bentgrass Turf” value (“Efficacy/Control of Silver Moss” below) (2 days) is given as 1.7, the “Efficacy/Control of Silver Moss” value (14 days) is 2.7, the “Efficacy/Control of Silver Moss” value (28 days) stood at 3.3 and the “Efficacy/Control of Silver Moss” value (50 days) was 6.3.
